According to the supplement of paper PMC11417369:
± gives the standard deviation of the averaged measurements. The list shows a part of the results.

Tested on: PfAP2-EXP AP2 domain (GST-tagged)
Test: gcPBM binding intensity (ln(normalized median fluorescence intensity)); higher = stronger DNA binding
Outline: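 DNA-binding domains from P. falciparum, fused to GST and produced in E. coli, were put on an Agilent 4 × 180k double-stranded probe array for 1 h in 1× PBS holding 1% milk, 0.2 mg/ml BSA, 0.5% salmon testes DNA and 0.03% Triton X-100. Probes were primer-extended, 36 bp long and drawn from intergenic genomic regions, with negative controls included. After Alexa488 anti-GST antibody detection and a 488 nm scan, binding intensity was set as the highest Masliner-normalised natural-log median intensity across replicate spots of either probe orientation.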

Sequence	gcPBM binding intensity (ln)
TTTTTTTTTTTTTTTTGTACGTATCAAAAAATTTGT [XGTACX_site1023]	8.13 ± 0.47
AATCAATAAATAAAAACATGCATATATATATATATA [TGCATGCA_site438]	10.3 ± 0.47
AAAAATAAATTTAGTTGTACTTTATTATTTTAAATA [XGTACX_site3067]	8.32 ± 0.29
AAAATAAAAATATTCACACATACAAAAATTATACAA [CACACA_site5136]	8.51 ± 0.45
CATTAATAAAAAAAAAGTACAAAAAATATATATATT [XGTACX_site2091]	8.72 ± 0.52
ATAATATATATATATAGTACATATATATAATATTCT [XGTACX_site2445]	8.2 ± 0.24
ATTTTTTTACTGTAACCATATTTTTCCCTTTTATTC [CACACA_negctrl_site1143]	8.98 ± 0.67
AAGAAAAACTTTACGTGTACCAAACATCCTGCCAAC [XGTACX_site598]	8.95 ± 0.41
TATATTGATGATGATAGTACGTATGATTAGAAAAAA [XGTACX_site8989]	8.62 ± 0.39
AGTGATACTAATTTTTGTACGCATAAAAGAATATTC [XGTACX_site6055]	8.88 ± 0.36
ATAGACAGCGCACAAACACACAAACACCCACCCACA [CACACA_site8043]	8.99 ± 0.67
TATATATATATGTGTACACAATTTATCTGTATTTAT [CACACA_site5945]	9.94 ± 0.11
AAAAAAAAAAAAATACGTACATACATACCTACATAT [XGTACX_site233]	8.615 ± 0.021
AAAAAAAAATTAATATATAAAAGGATATATATATAT [GTGCAC_negctrl_site449]	9.86 ± 0.3
AAAATATAATATAATGCACACATAAAACAAAAAAAA [CACACA_site8989]	8.78 ± 0.28
GAATAATATATATATTGTACTTTTTATTTATATTAT [XGTACX_site3180]	8.62 ± 0.42
CTTTTTTTTTTTTTTACACACCCAAATCACATACAT [CACACA_site4051]	8.71 ± 0.39
ATATATATATTTATATGTACGAAATATAAAAAAAAA [XGTACX_site5054]	8.815 ± 0.007
CTTATCAAAAAAAAAGCATGCCACAGGCAAAAGGTA [TGCATGCA_site574]	8.88 ± 0.44
ACATATAAATATATTACACACACACTAAAAAAATAA [CACACA_site6209]	8.82 ± 0.42
CACCTTATAAATACTGCACACATAAAATATATATTA [CACACA_site8908]	8.7 ± 0.26
ATATATATATATATATGTACATATATACATATACAT [XGTACX_site2350]	9.99 ± 0.43

Sequence	gcPBM binding intensity (ln)
ATATAAAAATGTGTATGTACACACTTTATTTTTAAT [XGTACX_site5272]	8.31 ± 0.34
TTAAAAAACCTTAGATGTACAGTTATATATAAAATA [XGTACX_site6688]	8.54 ± 0.35
TTTTTCTATAAAAAATGTACATATTTTATGAAGGAA [XGTACX_site821]	8.5 ± 0.35
AAATTACAAATACAAACACACAAATGTTTTTCATTC [CACACA_site3552]	8.13 ± 0.38
ATCCTTTATTTTTTTTGTACATAAAAATAACTCGAG [XGTACX_site3885]	8.97 ± 0.42
TGGAATAATACGCGTACACACATATATATATTAATA [CACACA_site131]	8.82 ± 0.47
TGAACACACGAGCACACACACACATCTATATTTATA [CACACA_site6607]	8.57 ± 0.38
AGGTATCAAAAATATGCATGCAATATTTTATGTAAT [TGCATGCA_site1055]	10.1 ± 0.26
AAACATAAGAGACACACACACATATATAAATAAATA [CACACA_site7674]	8.81 ± 0.42
AAAAATAAAATAAAGAAGGAAAATAAAAAAATAAGG [CACACA_negctrl_site1811]	8.79 ± 0.44
AGGAGGTCAGTTCACAGTACCCAGGAAATCTACGGA [XGTACX_site2552]	8.53 ± 0.45
AATTTCATAAATATAACTGAGAATAAATAAACAAAG [GTGCAC_negctrl_site146]	8.71 ± 0.47
CCTGTAAATAAATATAAATACATATTTCTAATATAT [GTGCAC_negctrl_site21]	8.25 ± 0.54
TTTCAAAAAAATAATGTGCACATTAGAAAATAAATA [GTGCAC_site9416]	8.9 ± 0.3
ACCTCATAATATTTAACACACAAAATTAAATGTATG [CACACA_site6898]	8.6 ± 0.33
GAAGTATTTATTTATGCATGCAAATATACAAAAAAA [TGCATGCA_site975]	10 ± 0.14
TTTTATACATATTTTACACACTAAAATATACATATA [CACACA_site324]	8.45 ± 0.28
ACATATATTTAAAAATGTACTTACATATATTTTTTA [XGTACX_site6050]	8.22 ± 0.29
TAAATATTTTTAGATGCATGCAATAATTACCCAAAG [TGCATGCA_site636]	9.87 ± 0.18
TTATTATTATTACTAGTGCATTAATTATATATGTAA	8.72 ± 0.13
TTTTTTTTTTCTGAAAGTACTAATTTCCTGGAGGAA [XGTACX_site759]	8.23 ± 0.47
ATAAAATAAATATTTTGTTATTTATTTAATCTAATA [XGTACX_negctrl_site404]	7.86 ± 0.49

Sequence	gcPBM binding intensity (ln)
TTATGTTGTAAATGCACACATACATAAACTCAGTTT [CACACA_site5639]	8.78 ± 0.057
ATTTAGAAAAATAAAACACACATATAGATGTAAATA [CACACA_site7853]	8.57 ± 0.58
ATATTTCTGTCAAGCACACATAATATTAAAATATGT [CACACA_site4330]	8.48 ± 0.36
ATGTTTGTCTATAGCTGTACCTATTTATAAAACGTA [XGTACX_site7157]	8.8 ± 0.33
TCATATTATAATGTGAGTACATATAATAAATAAGTT [XGTACX_site2470]	8.51 ± 0.35
TTAATATGATATATATATATATATATATATATATAT [CACACA_negctrl_site683]	10 ± 0.47
GTAAAAATTTTAAATACATGCAAGCGATTAATATGA [TGCATGCA_site80]	9.15 ± 0.22
CGTTAAAGGGAATGTATACACACGTTTCTCTATGTT [CACACA_site1198]	8.66 ± 0.47
GTATATATGTATATATGTACATATATACATTTTGTT [XGTACX_site7320]	8.81 ± 0.13
TTATAACAACTGGAATGATTAACAATAAATATTAAA [CACACA_negctrl_site1723]	8.41 ± 0.48
TATATATTTAACAATCGTACATATTTACAAATATAA [XGTACX_site2131]	8.29 ± 0.33
TTAAATAATATTAAATGTACATATTATTATGATATA [XGTACX_site6189]	8.16 ± 0.35
TATACATATATAAATGCATGTTGATATTAATAGTTA [TGCATGCA_site639]	8.62 ± 0.33
ACAGAAAAAAAACACACACACATAATATACATACAT [CACACA_site1932]	8.56 ± 0.44
AGGAGACTTAAAAAAAGTACAAAAAAAAAAAAAAGC [XGTACX_site1576]	8.64 ± 0.4
TATTTTTTTTTCTTTTTATATATAATAATCTTCATT [GTGCAC_negctrl_site80]	8.48 ± 0.59
TTATATGGCTCCATTTGTACGCATCCATGTTTTTAT [XGTACX_site6590]	9.16 ± 0.45
AACGAAAACACTACGTGTACCAAACGTCCTACTAAC [XGTACX_site4915]	8.49 ± 0.39
GTATATATTTTTATTTAATAATTTGTTTATTTATTC [CACACA_negctrl_site647]	8.56 ± 0.22
CATACATATACATACAGTACATATTTTTTGTCAATT [XGTACX_site7357]	8.56 ± 0.33
AGTTATTAAAAATGTGCATGCAATGGTTTCTCTTAA [TGCATGCA_site634]	9.99 ± 0.17
AAAAAAACATAACAAAATGAAACAAAACAAAAAGAA [GTGCAC_negctrl_site577]	8.93 ± 0.54

Sequence	gcPBM binding intensity (ln)
AAAAAAAAAAAAAAAGCACACATCATATTATAATTC [CACACA_site3355]	8.57 ± 0.12
TCTTTTTTTTCTTTTTTTTTATTTAAATATCAAGTA [CACACA_negctrl_site1354]	8.37 ± 0.4
AGGAGGTCAGTTCACAGTACCCAGAAACTCTACGAG [XGTACX_site2006]	8.29 ± 0.57
ATTTATAATGATTTTTTTAGTAATCTTGTTATTTTT [XGTACX_negctrl_site373]	8.32 ± 0.38
GTATGTATATATATATGTACATACTGTTTATCGTTA [XGTACX_site6168]	8.55 ± 0.28
AATATATAGAAACACACACACAAAAAAAAAAAAAAA [CACACA_site1326]	8.3 ± 0.54
AATAAAAAGACATTCACACATATATATTATTTATAT [CACACA_site5936]	8.51 ± 0.46
ATATAAAAAAAAAAAAGTACACATAAACAAATGCAT [XGTACX_site4241]	8.79 ± 0.52
AGATTATAAAATTCTACACACATATATACATATATA [CACACA_site3485]	8.29 ± 0.35
GACCAATTCAAATATGCACACAAATTTGAAAACGAT [CACACA_site9202]	8.61 ± 0.35
TTTTAATAAATATACACACACAAAAAAAAAAAAAAA [CACACA_site3971]	8.21 ± 0.59
TTTCACTTTTTCCAAAGTACATATATAAAAATTAAT [XGTACX_site6947]	8.51 ± 0.35
TTAAAATATAATATTCGTACTTATTCAAAAGAAAAA [XGTACX_site2122]	8.12 ± 0.44
ATATGTAGAAGTAATGCACACATATGTATATATATA [CACACA_site8796]	9.215 ± 0.035
TATATATATATATAATGTACATATATATAATATACA [XGTACX_site1552]	10.1 ± 0.27
ATTTCTACTAAAAATACACACGATGATACAACGAAG [CACACA_site1755]	9.05 ± 0.52
ATAATGTAAAAGTAAACACACACATATATATATACA [CACACA_site8793]	8.88 ± 0.48
GTCTTAAAAATTAAAACACACGTTCACTTTCATATT [CACACA_site5803]	8.82 ± 0.4
AATTAATAACAAAATAAACACACATATATAAATACA [CACACA_site8456]	8.83 ± 0.33
CTAATGATCATATATACACACACACTAATAAAAAAA [CACACA_site9329]	8.63 ± 0.52
TATATTTAGATATATACACACATTAGCATTTTCATA [CACACA_site6902]	8.24 ± 0.35
AAAGAATTTGCATATACACACAAAAAGATATATACA [CACACA_site6318]	8.64 ± 0.27
